# Test results published in PubChem BioAssay AID504339 (National Center for Advancing Translational Sciences (NCATS), 2011).
# In all, about 390,000 compounds went through this assay and about 17,000 (4.4%) were called active. Inconclusive means that the source gave no clear call. Such entries were picked first, then a sample of the others. Calls follow the shape of the dose curve; as a rule, active = well fitted inhibition curve with a large enough effect; inconclusive = small, poorly fitted or top-dose-only effect; inactive = no such curve, though single readings can be large or run the other way. Potencies of inconclusive entries are doubtful fits and often do not repeat.
# Target: Lysine-specific demethylase 4A (Homo sapiens) (UniProt O75164)
# Chain of UniProt O75164 (O75164 whole entry, looked up, the tested form may be a part): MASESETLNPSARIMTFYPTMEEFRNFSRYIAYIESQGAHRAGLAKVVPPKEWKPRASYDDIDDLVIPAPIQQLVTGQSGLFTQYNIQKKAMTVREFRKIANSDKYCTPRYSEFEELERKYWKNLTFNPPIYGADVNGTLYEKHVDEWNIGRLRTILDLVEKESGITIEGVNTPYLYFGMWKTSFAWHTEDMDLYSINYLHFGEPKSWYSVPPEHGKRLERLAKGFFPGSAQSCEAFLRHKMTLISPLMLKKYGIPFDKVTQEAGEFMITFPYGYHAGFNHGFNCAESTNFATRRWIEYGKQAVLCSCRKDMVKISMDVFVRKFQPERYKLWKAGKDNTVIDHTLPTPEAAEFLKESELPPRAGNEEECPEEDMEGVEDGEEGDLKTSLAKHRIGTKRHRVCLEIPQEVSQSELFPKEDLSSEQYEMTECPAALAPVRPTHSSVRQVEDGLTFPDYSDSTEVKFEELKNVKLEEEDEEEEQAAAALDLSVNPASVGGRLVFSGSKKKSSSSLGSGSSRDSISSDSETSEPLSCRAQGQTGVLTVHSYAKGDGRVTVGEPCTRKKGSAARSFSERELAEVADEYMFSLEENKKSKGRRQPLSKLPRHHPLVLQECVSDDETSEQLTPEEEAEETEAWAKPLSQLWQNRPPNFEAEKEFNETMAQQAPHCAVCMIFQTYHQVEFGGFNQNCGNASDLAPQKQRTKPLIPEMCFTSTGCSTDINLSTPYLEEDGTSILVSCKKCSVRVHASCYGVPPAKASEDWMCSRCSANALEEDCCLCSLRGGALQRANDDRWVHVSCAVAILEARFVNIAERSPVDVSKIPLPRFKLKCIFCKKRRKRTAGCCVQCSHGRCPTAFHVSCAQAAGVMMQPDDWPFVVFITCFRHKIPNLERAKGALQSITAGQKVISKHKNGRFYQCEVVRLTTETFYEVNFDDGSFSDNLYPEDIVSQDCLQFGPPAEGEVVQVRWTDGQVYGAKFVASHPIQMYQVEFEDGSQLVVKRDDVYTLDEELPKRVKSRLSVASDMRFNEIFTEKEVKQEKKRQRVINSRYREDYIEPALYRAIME
# Experiment: qHTS Assay for Inhibitors of JMJD2A-Tudor Domain; also: nearly all actives have a fitted effect of over 50% in size
# Conditions: AlphaScreen JMJD2A-Tudor / H3K4me3 peptide binding; activity change, negative = inhibition: at 114 µM (top of the series)
# % is scaled to controls: 0 for no effect and ±100 for the full control effect; potency is read from the fitted curve at half-maximal effect; tags tell the direction and shape of the fitted curve.
Compound,Potency,"activity change, negative = inhibition"
CCOC(=O)c1cnc2nc(NCc3ccc(OC)c(OC)c3)[nH]n2c1=O,"inconclusive: 89.1 µM [inhibitor, single point]",–
CN(C)CCN(C(=O)CCS(=O)(=O)c1ccccc1)c1nc2cc3c(cc2s1)OCO3,"inconclusive: 14.1 µM [inhibitor, full curve, poor fit]",–
N=C(N)SCC1=CCS(=O)(=O)C1,–,inactive: -10.3%
Cc1ccc2[nH]c(-c3cccc(N)c3)cc2c1,"inconclusive: 44.7 µM [inhibitor, full curve]",–
Cc1nc2sc(C(c3ccco3)N3CCC(Cc4ccccc4)CC3)c(O)n2n1 (stereo not given),"inconclusive: 56.2 µM [inhibitor, partial curve]",–
CSCC[C@H](NC(=O)C1CCN(S(=O)(=O)c2ccc(C)cc2)CC1)C(=O)NCc1ccco1,"inconclusive: 39.8 µM [inhibitor, single point]",–
COc1ccc(-c2nc(-c3ccc(O)cc3O)cs2)cc1OC,"inconclusive: 56.2 µM [inhibitor, partial curve]",–
COc1ccc(OCCNc2cc(Cl)ccc2[N+](=O)[O-])cc1,"inconclusive: 28.2 µM [inhibitor, partial curve]",–
O=C(Nc1ccccc1N1CCCC1)c1ccc(Cl)cc1Cl,–,inactive: -28.9%
O=C(CSc1nnc(-c2cccc(Cl)c2)o1)N1CCc2ccccc21,–,inactive: -14.4%
C[C@@H]1O[C@@H](O[C@@H]2[C@@H](O)[C@H](OCCc3ccc(O)c(O)c3)O[C@H](CO)[C@H]2OC(=O)/C=C/c2ccc(O)c(O)c2)[C@H](O)[C@H](O)[C@H]1O,active: 17.8 µM,–
COc1ccc(C(=O)N/N=C(\C)CC(=O)Nc2ccc(N(C)C)cc2)c(OC)c1,"inconclusive: 50.1 µM [inhibitor, partial curve]",–
CCOc1cccc(OCCCCN2CCCCC2)c1,"inconclusive: 0.708 µM [inhibitor, full curve, poor fit]",–
O=C1OC(C(=O)Nc2ccccc2)Cc2ccccc21 (stereo not given),–,inactive: -6.32%
O=C(NCCCN1CCOCC1)c1cc(-c2ccco2)nc2ccccc12,active: 50.1 µM,–
CN(c1ccccc1N(C)S(=O)(=O)c1ccccc1)S(=O)(=O)c1ccccc1,–,inactive: -15%
O=c1[nH]c(NNC(=S)NC2CCCCC2)nc2c1C1(CCCC1)Cc1ccccc1-2,"inconclusive: 28.2 µM [inhibitor, partial curve, poor fit]",–
Cc1c(C)n2c(SCC(=O)N3CCOCC3)nnc2[nH]c1=O,active: 31.6 µM,–
Cc1ccnn1CCSCC(=O)O,–,inactive: -8.72%
O=C(NNC1=NS(=O)(=O)c2ccccc21)c1ccc([N+](=O)[O-])cc1,–,inactive: -6.36%
Cc1cccc(N2CCN(C(=O)c3cccn4c(=O)c5cc(Cl)ccc5nc34)CC2C)c1 (stereo not given),"inconclusive: 56.2 µM [inhibitor, partial curve]",–
CC1CN(C(=O)c2cc(COc3c(F)cccc3F)on2)CCN1C (stereo not given),"inconclusive: 39.8 µM [inhibitor, partial curve]",–
CCN1CCN(Cc2ccc(NC(=O)c3ccc(C)c(NC(=O)c4cccc(-c5cn[nH]c(=O)c5)c4)c3)cc2C(F)(F)F)CC1,"inconclusive: 89.1 µM [inhibitor, partial curve]",–

Compound,Potency,"activity change, negative = inhibition"
CCn1c(NCc2ccco2)nc2c1c(=O)n(C)c(=O)n2C,–,inactive: -2.31%
N/C(=N\N=Cc1ccc2c(c1)OCO2)NN=Cc1ccc2c(c1)OCO2,"inconclusive: 22.4 µM [inhibitor, full curve, poor fit]",–
Cc1ccc(NC(=O)C2CC2c2ccccc2)c([N+](=O)[O-])c1 (stereo not given),"inconclusive: 50.1 µM [inhibitor, partial curve]",–
CCOCCCNCc1ccc(Cl)cc1,active: 1.12 µM,–
COc1cc(OC)nc(Oc2ccccc2/C=N/O)n1,active: 44.7 µM,–
CC(=O)Nc1ccc(N=C(C2=C(O)c3ccccc3C2=O)c2ccccc2)cc1,active: 56.2 µM,–
CC(=O)N1c2nc(C(C)C)nn2C2(CCCCC2)[C@@H]2CCCC[C@@H]21,–,inactive: -0.331%
COc1cccc(CN(C(=O)Cn2nnc(-c3ccccc3F)n2)C(C(=O)NC(C)(C)C)c2ccncc2)c1 (stereo not given),"inconclusive: 50.1 µM [inhibitor, partial curve]",–
CCOc1ccc(NC(=O)c2c(Nc3ccc(OC)cc3OC)sc(C(=O)c3ccc(Cl)cc3)c2N)cc1,–,inactive: -35.7%
Cc1cc2c(s1)c1cnn(Cc3ccc(F)cc3F)c(=O)c1n2C,–,inactive: -25.3%
Cn1c(O)c(N=NC(=O)Cc2c[nH]c3ccccc23)c2ccccc21,"inconclusive: 79.4 µM [inhibitor, partial curve]",–
CC1(C)SC2C(C(=O)O)N=C(Cc3ccccc3)N2C1C(=O)O (stereo not given),"inconclusive: 1.78 µM [inhibitor, full curve, poor fit]",–
O=C1CCCN1CCC1CCCCN1Cc1nc(COc2ccccc2)no1 (stereo not given),–,inactive: -15.1%
O=c1[nH]c2ccccc2cc1CN(Cc1ccco1)S(=O)(=O)c1ccccc1,"inconclusive: 56.2 µM [inhibitor, partial curve]",–
Cc1ccccc1C(=O)NC(=S)Nc1ccc(N2CCN(C(=O)c3ccccc3)CC2)cc1,"inconclusive: 10 µM [inhibitor, full curve, poor fit]",–
Cc1cc(C)n2cc(CSc3nnnn3-c3ccccc3)nc2n1,–,inactive: -9.92% [at 57.1 µM]
COC(=O)c1ccc(C(=O)OC)c(NC(=O)C2CC(=O)N(C3CCCC3)C2)c1 (stereo not given),"inconclusive: 31.6 µM [inhibitor, partial curve]",–
O=C(O)c1ccc(/C=C2/SC(=S)N(Cc3ccccc3)C2=O)cc1,"inconclusive: 11.2 µM [inhibitor, full curve, poor fit]",–
Cn1c(/C=C/c2ccc(Cl)cc2)nc2ccccc2c1=O,"inconclusive: 11.2 µM [inhibitor, full curve]",–
CCCSc1nc2sc3c(c2c(=O)n1-c1ccc(OC)cc1)CCN(C)C3,"inconclusive: 56.2 µM [inhibitor, partial curve]",–
COc1ccc(S(=O)(=O)N2CCN(C(=O)CCCN3C(=O)NC4(CCCC4)C3=O)CC2)cc1,–,inactive: -13.8%
Cc1ccccc1CN1CCN(C(=O)c2cc(-c3ccncc3)nc3ccccc23)CC1,"inconclusive: 56.2 µM [inhibitor, partial curve]",–
